In PubChem BioAssay AID504332 (National Center for Advancing Translational Sciences (NCATS), 2011):
Among all 350,000 compounds or so, about 31,000 (8.9%) were called active. The inconclusive results got no clear call from the source; some entries with a clear call stand among them for comparison. The call rests on the fitted dose curve; in most records, active means well fitted inhibition curve with a large enough effect; inconclusive means small, poorly fitted or top-dose-only effect; inactive means no such curve, though single readings can be large or run the other way. A potency beside an inconclusive call is a rough fit, not a confirmed value.

Target: Histone-lysine N-methyltransferase EHMT2 (Homo sapiens) (UniProt Q96KQ7)
Assay: qHTS Assay for Inhibitors of Histone Lysine Methyltransferase G9a; further: nearly all actives have a fitted effect of over 75% in size
Conditions: G9a H3K9 monomethylation, AlphaScreen, 2 h; activity, negative = inhibition: at 59 µM (top of the series) unless noted
How it was run: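 Chemiluminescent proximity detection of H3K9 monomethylation, read after 10 min bead incubation in the dark. Reaction: 20 nM G9a, 500 nM biotin-H3K9 peptide, 20 uM SAM cofactor, 2 h, room temperature, following 15 min enzyme-compound preincubation.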
On the % scale 0 is the no-effect control and ±100 the full control effect; potency means the concentration at half of the fitted maximal effect; tags describe the fitted curve by direction and shape.

Chain of UniProt Q96KQ7 (Q96KQ7 whole entry, looked up): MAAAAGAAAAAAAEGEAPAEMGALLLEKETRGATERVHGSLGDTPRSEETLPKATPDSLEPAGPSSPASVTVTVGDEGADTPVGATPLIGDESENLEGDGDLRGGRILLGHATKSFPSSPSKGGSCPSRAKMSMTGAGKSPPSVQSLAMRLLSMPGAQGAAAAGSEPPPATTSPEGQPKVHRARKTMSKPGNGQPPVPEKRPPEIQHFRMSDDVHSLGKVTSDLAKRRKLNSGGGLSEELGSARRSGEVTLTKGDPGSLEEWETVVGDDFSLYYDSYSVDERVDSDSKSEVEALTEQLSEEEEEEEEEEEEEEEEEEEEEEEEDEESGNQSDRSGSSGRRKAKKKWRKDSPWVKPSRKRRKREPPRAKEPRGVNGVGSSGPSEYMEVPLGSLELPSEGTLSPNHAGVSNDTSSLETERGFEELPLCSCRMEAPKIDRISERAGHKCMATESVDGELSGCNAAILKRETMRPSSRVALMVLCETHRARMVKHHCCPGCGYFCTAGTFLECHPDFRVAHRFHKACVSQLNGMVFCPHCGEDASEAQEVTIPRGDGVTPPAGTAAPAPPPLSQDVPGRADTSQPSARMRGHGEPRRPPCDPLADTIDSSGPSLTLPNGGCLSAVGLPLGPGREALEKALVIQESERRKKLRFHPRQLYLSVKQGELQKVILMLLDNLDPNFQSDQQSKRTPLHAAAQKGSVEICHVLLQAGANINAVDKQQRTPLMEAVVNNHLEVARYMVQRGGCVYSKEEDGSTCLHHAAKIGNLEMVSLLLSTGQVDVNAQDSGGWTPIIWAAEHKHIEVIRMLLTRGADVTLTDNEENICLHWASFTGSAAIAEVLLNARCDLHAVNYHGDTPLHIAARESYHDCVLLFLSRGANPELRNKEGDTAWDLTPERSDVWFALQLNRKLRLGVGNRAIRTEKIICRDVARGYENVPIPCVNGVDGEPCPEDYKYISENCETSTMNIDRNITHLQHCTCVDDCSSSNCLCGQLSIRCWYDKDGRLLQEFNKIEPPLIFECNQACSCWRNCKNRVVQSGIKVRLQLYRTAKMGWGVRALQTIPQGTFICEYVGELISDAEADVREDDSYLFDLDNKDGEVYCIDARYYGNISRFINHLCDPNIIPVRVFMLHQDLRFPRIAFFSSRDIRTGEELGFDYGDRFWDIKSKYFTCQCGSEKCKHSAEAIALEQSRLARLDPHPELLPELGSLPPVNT

Row | Compound | Potency | activity, negative = inhibition
1 | CCOc1ccc(N2C(=O)N(Cc3c(F)cccc3Cl)c3ccccc3S2(=O)=O)cc1 | inactive | –
2 | CN(C)c1ccc(CN(CC2CCCO2)C(=O)c2ccc(Br)cc2)cc1 (centres undefined) | active: 14.1 µM | –
3 | CC(=O)c1cccc(N=C2C(=O)Nc3ccccc32)c1 | inconclusive: 89.1 µM [inhibitor, single point] | –
4 | O=C(CN(c1ccc(F)cc1)S(=O)(=O)c1ccc2c(c1)OCCO2)Nc1ccc2c(c1)OCO2 | inactive | –
5 | CCCCOc1ccc(NC(=O)Cn2nnnc2-c2ccccc2F)cc1 | inconclusive: 7.08 µM [inhibitor, single point] | –
6 | CN(C(=O)c1ccc(NC(=O)Cc2ccc(NC(=O)C3CCCN(C(=O)C4CC4)C3)cc2)cc1)C1CC1 (centres undefined) | – | inactive: 3.03% [at 0.501 µM]
7 | CCOC(=O)c1[nH]c2ccccc2c1NC(=S)Nc1ccccc1 | active: 44.7 µM | –
8 | CC(=O)C1=C(O)C(=O)N(c2ccc(O)cc2)C1c1ccccc1Cl (centres undefined) | inconclusive: 89.1 µM [inhibitor, single point] | –
9 | COCCn1c(=O)c(-c2ccc(Cl)cc2)nc2cnc(Oc3ccccc3)nc21 | – | inactive: 2.9% [at 12.7 µM]
10 | Clc1ccc(C2Nc3ccccc3-n3cccc32)cc1 (centres undefined) | inconclusive: 79.4 µM [inhibitor, single point] | –
11 | COc1ccccc1NS(=O)(=O)c1cc([N+](=O)[O-])ccc1N/N=C/c1c(C)[nH]c2ccccc12 | – | inactive: 1.93% [at 12.7 µM]
12 | CCSCCC(NC1=CC(=O)CC(C)(C)C1)C(=O)O (centres undefined) | inconclusive: 22.4 µM [inhibitor, single point] | –
13 | Cc1cc(C)cc(NC(=S)NCCc2ccc(S(N)(=O)=O)cc2)c1 | inconclusive: 39.8 µM [inhibitor, single point] | –
14 | COc1ccc(C(=O)NNC(=O)CSc2nc(C(C)C)nc3ccccc23)cc1 | inactive | –
15 | COc1cc(OC)c(NC(=O)Cn2cnc3sc(C)c(S(=O)(=O)N4CCN(C)CC4)c3c2=O)cc1Cl | inconclusive: 4.47 µM [inhibitor, single point] | –
16 | CC/C(=N\NC(=O)c1ccc(N2CCCC2=O)cc1)c1ccccc1 | inconclusive: 5.62 µM [inhibitor, partial curve, poor fit] | –
17 | Cc1ccc(S(=O)(=O)c2nc(-c3ccco3)oc2SCC(C)C)cc1 | inconclusive: 7.94 µM [inhibitor, partial curve, poor fit] | –
18 | CCNC(=O)C(C)Sc1ccc(Cl)cc1 (centres undefined) | inactive | –
19 | COc1ccc2nc3sc(C(=O)NCCCN4CCc5ccccc5C4)cc3cc2c1 | inconclusive: 25.1 µM [inhibitor, single point] | –
20 | C=C(C)C(=O)Nc1cccc(C2=NOC3(C2)C[C@H](C(N)=O)N(C(=O)COc2ccc(Cl)cc2)C3)c1 (some centres undefined) | – | inconclusive: -94% [inhibitor] [at 12.7 µM]
21 | COc1ccc(OC)c(C2C(C(=O)c3cccs3)=C(O)C(=O)N2CCN2CCOCC2)c1 (centres undefined) | active: 44.7 µM | –
22 | NC(=O)NC(CC(=O)NCCCc1ccccc1)c1ccc(Cl)cc1 (centres undefined) | inconclusive: 79.4 µM [inhibitor, partial curve, poor fit] | –
23 | CC1(C)Oc2ccc(C(=O)N3CCOCC3)cc2N(CC(=O)Nc2ccccc2)C1=O | inconclusive: 0.891 µM [inhibitor, partial curve, poor fit] | –

Row | Compound | Potency | activity, negative = inhibition
24 | O=C(CCC1N=C2c3ccccc3N=C(SCc3ccc(Cl)cc3)N2C1=O)NCc1ccco1 (centres undefined) | inconclusive: 50.1 µM [inhibitor, partial curve, poor fit] | –
25 | COc1cccc(OC)c1C(=O)OCC(=O)NCCCc1ccccc1 | inactive | –
26 | C/C(=N\NS(=O)(=O)c1ccc(C(C)(C)C)cc1)c1ccccc1 | inconclusive: 89.1 µM [inhibitor, single point] | –
27 | CC1CCCN(CC(O)COCc2ccccc2)C1 (centres undefined) | inconclusive: 89.1 µM [inhibitor, single point] | –
28 | COc1cccc(CNC(=O)C(Cc2ccccc2)n2cccc2)c1 (centres undefined) | inconclusive: 56.2 µM [inhibitor, partial curve] | –
29 | CC(C)(C)OC(=O)N1CCC(c2c(C(=O)Nc3ccc4c(c3)OCCO4)cnn2-c2ccccc2)CC1 | inconclusive: 10 µM [inhibitor, partial curve, poor fit] | –
30 | COc1ccc(CCNC(=O)CCNC(=O)N2CC(=O)Nc3ccccc32)cc1 | inactive | –
31 | Cc1cc(C(=O)N/N=C/c2cccn2C)n[nH]1 | inconclusive: 89.1 µM [inhibitor, partial curve, poor fit] | –
32 | O=C(CSc1ccc(-c2ccco2)nn1)N1CCCC1 | inconclusive: 22.4 µM [inhibitor, full curve] | –
33 | COc1cc(N2CCCC2)c(OC)cc1C=O | inconclusive: 56.2 µM [inhibitor, partial curve] | –
34 | CC1CN(C(=O)C(C)N2CCN(c3ccccc3Cl)CC2)CC(C)O1 (centres undefined) | inactive | –
35 | Cc1ccc2c(c1)C1NC(=S)NC(C)(O2)C1C(=O)Nc1ccc(Cl)cc1 (centres undefined) | inactive | –
36 | O=C(CN1CCN(S(=O)(=O)c2ccc(Br)cc2)CC1)Nc1ccc(F)cc1 | inconclusive: 44.7 µM [inhibitor, partial curve, poor fit] | –
37 | COC(=O)C1(C#N)C(c2ccccc2)C1(C(=O)OC)C(=O)OC (centres undefined) | inconclusive: 50.1 µM [inhibitor, partial curve] | –
38 | CN1CCN(CC(O)Cn2c3ccccc3c3ccccc32)CC1 (centres undefined) | active: 1.78 µM | –
39 | COc1cc(O)c(C(CCN2CCN(c3ccccc3)CC2)c2ccc(N(C)C)cc2)c(OC)c1 (centres undefined) | inconclusive: 10 µM [inhibitor, single point] | –
40 | Cc1cc(N2C(=O)C(O)=C(C(=O)c3ccc(C)o3)C2c2cccs2)no1 (centres undefined) | inconclusive: 6.31 µM [inhibitor, single point] | –
41 | N#C/C(=C\c1cc2ccccc2nc1N1CCOCC1)C(=O)Nc1ccc(N2CCOCC2)cc1 | inconclusive: 25.1 µM [inhibitor, partial curve, poor fit] | –
42 | Cc1ccc(C)c(S(=O)(=O)Nc2ccc(S(=O)(=O)Nc3ncccn3)cc2)c1 | inconclusive: 7.08 µM [inhibitor, single point] | –
43 | S=c1[nH]ncn1NCc1ccc(Cl)cc1Cl | active: 2.82 µM | –
44 | COCCSc1ccccc1C(=O)Nc1nnc(C)s1 | inconclusive: 39.8 µM [inhibitor, single point] | –
45 | COC(=O)NCc1c(C)nn(-c2ccccc2)c1-n1cccc1 | inactive | –
46 | CC(CN1CCN(c2ccccc2)CC1)c1ccccc1 (centres undefined) | inconclusive: 31.6 µM [inhibitor, partial curve, poor fit] | –

Row | Compound | Potency | activity, negative = inhibition
47 | COc1ccccc1C1NC=C([N+](=O)[O-])C=C1[N+](=O)[O-] (centres undefined) | active: 3.55 µM | –
48 | CCn1cc(/C=C(\NC(=O)c2ccccc2F)C(=O)N2CCCC2)c2ccccc21 | inactive | –
49 | Cc1cccc(-n2ncc(C(=O)NCc3ccccn3)c2C2CCN(C(=O)OC(C)(C)C)CC2)c1 | inactive | –
50 | CCCCN1C(=O)CN(C2CCCCC2)C(=O)C1c1ccc(OC(C)C)c(OC)c1 (centres undefined) | inactive | –
51 | O=C(CCCn1c(=O)c2sccc2n(Cc2ccc(F)cc2)c1=O)NCc1ccco1 | inconclusive: 89.1 µM [inhibitor, single point] | –
52 | Cc1ccc(S(=O)(=O)c2cc3c(=O)n4ccccc4nc3n(Cc3ccco3)c2=N)cc1 | inconclusive: 3.55 µM [inhibitor, partial curve, poor fit] | –
53 | CCN(CC)CCCNC(=O)c1cc2c(-c3ccc(Cl)cc3)nn(C)c2s1 | inconclusive: 89.1 µM [inhibitor, single point] | –
54 | Cc1cc(NC(=O)Cn2nc(C)n3cccc3c2=O)ccc1Br | inactive | –
55 | Cc1ncc(CO)c2cc(-c3nnc(Nc4ccc5c(c4)OCO5)s3)c(=O)oc12 | inconclusive: 89.1 µM [inhibitor, partial curve, poor fit] | –
56 | COc1ccc(NC(=O)CC2C(=O)N(c3ccc(C)cc3)C(=O)N2Cc2cccnc2)cc1 (centres undefined) | inactive | –
57 | CCOC(=O)c1ccc(NC(=O)Nn2cnnc2)cc1 | inconclusive: 89.1 µM [inhibitor, single point] | –
58 | CCOc1ccc2nc(NC(=O)c3cnccn3)sc2c1 | inconclusive: 79.4 µM [inhibitor, partial curve, poor fit] | –
59 | O=c1cc(O)c2sc(Nc3cccc(C(F)(F)F)c3)nc2[nH]1 | inconclusive: 89.1 µM [inhibitor, single point] | –
60 | COc1ccc(N2CCN(C(=O)COC(=O)CCS(=O)(=O)c3ccc(C)cc3)CC2)cc1 | active: 39.8 µM | –
61 | CCOc1ccc(S(=O)(=O)NCc2ccccc2Cl)cc1C(N)=O | inactive | –
62 | Cc1ccc(C)c(N2CCN(c3nc4ccccc4n4c(C)nnc34)CC2)c1 | inactive | –
63 | O=CN1CCN(C(=O)c2cc3cc(Cl)ccc3[nH]2)CC1 | inconclusive: 39.8 µM [inhibitor, single point] | –
64 | COc1ccc(CCNC(=O)C(C(=O)c2ccccc2)n2ccccc2=O)cc1OC (centres undefined) | inconclusive: 89.1 µM [inhibitor, single point] | –
65 | COC(=O)c1[nH]nc2c1C(=O)N(Cc1ccccc1)C2=O | – | inactive: -12.2% [at 2.33 µM]
66 | O=C(NCc1cccc(C(F)(F)F)c1)N1CCN(S(=O)(=O)c2ccccc2F)CC1 | inactive | –
67 | CCN(CC)S(=O)(=O)c1cccc(NC(=O)COc2ccc(C#N)cc2OC)c1 | inconclusive: 89.1 µM [inhibitor, partial curve, poor fit] | –
68 | CCCc1nnc(SCC(=O)N2C(C)CCCC2C)n1CC (centres undefined) | inconclusive: 79.4 µM [inhibitor, single point] | –
69 | CCC(Sc1ncccc1C(=O)O)C(=O)N1CCOCC1 (centres undefined) | inconclusive: 6.31 µM [inhibitor, single point] | –
